“And” between values parts separate entries of the source, which are not always exact repeats. Equal entries are not always repeated. The whole screen tested about 16,000 compounds, of which about 40 (0.2%) were called active. Another 1% or so got no clear call; they are omitted. Calls follow the shape of the dose curve; as a rule, active = well fitted activation curve with a large enough effect; inconclusive = small, poorly fitted or top-dose-only effect, or another doubt; inactive = no such curve, though single readings can be large or run the other way. This is one part of the list.
biological target: Rap guanine nucleotide exchange factor 4 (Homo sapiens) (UniProt Q8WZA2); assay: Validation qHTS for agonist of cAMP-regulated guanine nucleotide exchange factor 4 (EPAC2); conditions: EPAC2 Rap1B BODIPY-GDP exchange, fluorescence; activation: stronger effect = higher value;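 as to activation: exchange makes BODIPY-GDP fluorescence drop when released from Rap1B; series mostly up to about 150 µM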
How it was run: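 Signal normalized against 6.5 mM cAMP as agonist control. Mix of EPAC2 (100 nM), RAP1B-BODIPY-GDP (250 nM) and GDP (50 uM) was read kinetically at 480/540 nm, every 5 min over 30 min, after 5 min room-temperature incubation with compound.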
% is scaled to controls: 0 for no effect and ±100 for the full control effect; potency is read from the fitted curve at half-maximal effect.

UniProt Q8WZA2, sequence (Q8WZA2 whole entry, looked up): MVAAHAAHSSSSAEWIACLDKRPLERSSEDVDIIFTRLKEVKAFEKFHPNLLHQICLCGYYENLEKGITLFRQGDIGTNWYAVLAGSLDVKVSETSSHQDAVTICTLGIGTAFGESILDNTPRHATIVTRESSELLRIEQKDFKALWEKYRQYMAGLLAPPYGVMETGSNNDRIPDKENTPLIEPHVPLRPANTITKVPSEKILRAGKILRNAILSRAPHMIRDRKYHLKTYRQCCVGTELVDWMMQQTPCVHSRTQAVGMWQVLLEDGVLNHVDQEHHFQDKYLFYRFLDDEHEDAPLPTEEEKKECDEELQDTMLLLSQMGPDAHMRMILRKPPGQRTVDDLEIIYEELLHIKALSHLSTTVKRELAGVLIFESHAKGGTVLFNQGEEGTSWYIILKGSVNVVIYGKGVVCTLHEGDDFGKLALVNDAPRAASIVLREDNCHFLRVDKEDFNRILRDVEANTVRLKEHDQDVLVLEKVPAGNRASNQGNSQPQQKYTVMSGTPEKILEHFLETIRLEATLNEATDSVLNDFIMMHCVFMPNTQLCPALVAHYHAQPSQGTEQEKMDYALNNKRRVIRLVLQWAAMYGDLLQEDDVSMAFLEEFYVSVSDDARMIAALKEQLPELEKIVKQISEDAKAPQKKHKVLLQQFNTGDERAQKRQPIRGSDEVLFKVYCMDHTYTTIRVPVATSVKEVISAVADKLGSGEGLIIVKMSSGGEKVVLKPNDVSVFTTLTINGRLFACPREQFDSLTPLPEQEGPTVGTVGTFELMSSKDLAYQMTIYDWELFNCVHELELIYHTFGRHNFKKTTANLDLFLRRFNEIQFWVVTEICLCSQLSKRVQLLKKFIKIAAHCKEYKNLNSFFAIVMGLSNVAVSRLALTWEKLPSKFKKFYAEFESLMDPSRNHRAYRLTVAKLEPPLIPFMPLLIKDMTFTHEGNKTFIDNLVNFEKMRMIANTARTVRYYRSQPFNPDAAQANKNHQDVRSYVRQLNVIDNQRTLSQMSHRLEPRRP

Row | SMILES | activation | Potency
1 | NC(=O)NNc1ccccc1 | inactive: 3.92% and inactive: -18.8% | –
2 | Cc1cc2c(cc1C)N[C@]1(C[C@H]3CCC(=O)N4CC[C@@H](C1)[C@@H]34)C(=Nc1ccccc1C)N2 | inactive: -25.8% | –
3 | CCO[C@H]1[C@H](NC(=O)c2cccnc2)c2ccccc2C12CCN(C(=O)c1ccoc1)CC2 | inactive: -6.13% | –
4 | Cc1cccc2c(C(O)c3c[nH]c4c(C)cccc34)c[nH]c12 | inactive: -35.2% | –
5 | COc1cc(OC)c2c(c1Cl)OC1(C2=O)C(O)=CC(=O)CC1C (configuration not stated) | inactive: 7.82% | –
6 | CC(C)(O)c1ccccc1CC[C@@H](SCC1(CC(=O)O)CC1)c1cccc(/C=C/c2ccc3ccc(Cl)cc3n2)c1 | inactive: -24.9% | –
7 | CCCCCCCCCCCC(=O)O[C@H](CC(=O)O)C[N+](C)(C)C | inactive: -34.6% | –
8 | COc1ccc(-c2cc(C(=O)N3CCc4c(cnc(C)c4CNC(=O)c4ccsc4)C3)[nH]n2)cc1 | inactive: -25.8% | –
9 | Cc1nc2cc(NC(=O)[C@@H]3C[C@@H](Sc4ccccn4)CN3Cc3ccccc3)ccc2s1 | inactive: 5.99% | –
10 | CC1(C)CC[C@]2(C(=O)O)CC[C@]3(C)C(=CCC4[C@@]5(C)CC[C@H](O)C(C)(C)C5[C@H](O)C[C@]43C)C2C1 (some centres not stated) | inactive: -43.5% | –
11 | C=CS(=O)(=O)N(Cc1ccccc1Br)[C@H](CO)CC(C)C | inactive: -34.8% | –
12 | COc1ccc2c(=O)c3ccccc3oc2c1 | inactive: -27% | –
13 | C[C@@H]1OC(OC2CC[C@@]3(C)C(CC[C@@]4(C)C3CC=C3C5CC(C)(C)CC[C@]5(C(=O)OC5OCC(O)[C@@H](O)[C@@H]5OC5O[C@@H](C)[C@H](O[C@H]6OC(CO)C(O)C(O)C6O)C(O)C5O)C(O)C[C@@]34C)C2(C)C)C(O)C(O)[C@H]1OC1OCC(O)C(O)[C@H]1O (some centres not stated) | inactive: -21.2% | –
14 | CN1CCN(c2ncc3nc(-c4ccc(F)cc4)c(=O)n(C4CC4)c3n2)CC1 | inactive: -10.2% | –
15 | Nc1nc2ncc(CNc3ccc(C(=O)NC(CCC(=O)O)C(=O)O)cc3)nc2c(=O)[nH]1 (configuration not stated) | inactive: -1.78% | –
16 | O=C(NCC1CCC2(CCN(Cc3cccc(-c4ccco4)c3)CC2)O1)c1ccccc1 (configuration not stated) | inactive: -3.43% | –
17 | CC(C)=CCc1c(O)cc(O)c2c1O[C@H](c1ccccc1)CC2=O | inactive: -5.38% | –
18 | CC(=O)OCC1OC(Oc2cc(OC(C)=O)c3c(=O)cc(-c4ccc(OC(C)=O)cc4)oc3c2)[C@@H](OC(C)=O)C(OC(C)=O)C1OC(C)=O (some centres not stated) | inactive: -49.6% | –
19 | CNc1ccccc1C(=O)N1CCc2c([nH]c3ccccc23)C1=O | inactive: -21.8% | –
20 | CC1=C(C(=O)O)N2C(=O)[C@@H](NC(=O)C(N)c3ccccc3)[C@H]2SC1 (some centres not stated) | inactive: -7.93% | –
21 | COc1ccc2c(=O)c(CC(=O)O)coc2c1 | inactive: 0.765% | –

Row | SMILES | activation | Potency
22 | N#CCCn1c(=O)c(-c2ccc(F)cc2)nc2cnc(Oc3ccccc3)nc21 | inactive: -13.1% | –
23 | CN1CCN(c2ncc3nc(CCc4ccccc4)c(=O)n(C4CC4)c3n2)CC1 | inactive: 10.5% | –
24 | O=S(=O)(NCc1ccc(F)cc1)c1ccc(Br)cc1Br | inactive: -32.6% | –
25 | Nc1ccn([C@@H]2CS[C@H](CO)O2)c(=O)n1 | inactive: 14.6% | –
26 | COc1ccc(C2Sc3ccccc3N(CCN(C)C)C(=O)[C@@H]2OC(C)=O)cc1 (some centres not stated) | inactive: -12.4% and inactive: 6.35% | –
27 | CN(C)C(=O)Oc1ccc[n+](C)c1 | inactive: -2.42% and inactive: -26.9% | –
28 | Nc1c2c(nc3ccccc13)CCCC2O (configuration not stated) | inactive: -4.49% and inactive: -16.8% and inactive: 10.3% | –
29 | COc1ccc(Oc2ncc3nc(-c4cccc(C#N)c4)c(=O)n(Cc4cccc(OC)c4)c3n2)cc1 | inactive: 1.84% | –
30 | O=C(Cc1ccc2c(c1)OCO2)N1CCOc2ccc(CN3CCOCC3)cc2C1 | inactive: -13% | –
31 | Cc1cc(N)c2ccccc2[n+]1CCCCCCCCCC[n+]1c(C)cc(N)c2ccccc21 | inactive: -2.03% [middle of 4 runs] | –
32 | c1ccc(Cc2nnc3n2CCN(Cc2cnc(-c4ccccc4)s2)CC3)cc1 | inactive: -6.49% | –
33 | CCCCCCCCCCCCC/C=C/[C@@H](O)[C@@H](N)CO | inactive: -5.19% and inactive: -12.2% | –
34 | COc1ccccc1OCC(O)COC(N)=O (configuration not stated) | inactive: -5.28% and inactive: -9.65% | –
35 | COCC(=O)N1CCC2(CC1)CCN(C(=O)Nc1ccc(OC)cc1)CC2 | inactive: -26.1% | –
36 | NCCO/C=C/[C@H](N)C(=O)O | inactive: 6.06% | –
37 | C=Cc1ccc(C(=O)N2CCc3c(cnc(C)c3CNC(=O)c3ccc4c(c3)OCO4)C2)cc1 | inactive: -11.8% | –
38 | O=c1c(CCc2ccccc2)nc2cnc(N3CCNCC3)nc2n1C1CC1 | inactive: -5.23% | –
39 | Cc1ccc2cccc(O)c2n1 | inactive: -16.4% | –
40 | N#Cc1cccc(CN2CCC(=O)N([C@H](CO)Cc3ccccc3)CC2)c1 | inactive: -6.24% | –
41 | COc1ccc(CNc2ncncc2-c2ccccc2OC)c(OC)c1 | inactive: -30.1% | –
42 | COc1ccc2c(c1)OC(C)CN(CCC(=O)NCC1OCCc3ccccc31)C2 (configuration not stated) | inactive: -1.47% | –

Row | SMILES | activation | Potency
43 | CCNC(=O)/C=C/c1cccc(Br)c1 | inactive: -14.1% | –
44 | NC1CCN(c2nc3c(cc2F)c(=O)c(C(=O)O)cn3-c2ccc(F)cc2F)C1 (configuration not stated) | inactive: -9.45% | –
45 | Cc1cccc(/C=C/c2cccs2)n1 | inactive: -18.4% | –
46 | COc1cccc(Cn2c(=O)c(-c3cn(C)c4ccccc34)nc3cnc(N4CCOCC4)nc32)c1 | inactive: -8.66% | –
47 | C[C@@H]1C(=O)NC2=Nc3cccc(Cl)c3CN21 | inactive: -22.1% and inactive: -38% | –
48 | COCCN(C)C(=O)c1cnn(-c2ncc3c(n2)-c2ccccc2CCC3)c1C1CC1 | inactive: -0.453% | –
49 | O=c1cc(-c2ccccc2)oc2cccc(O)c12 | inactive: 2.29% and inactive: -1.18% | –
50 | O=C(NC1CCN(CCc2c[nH]c3ccccc23)CC1)c1ccccc1 | inactive: -14.9% | –
51 | C=C[C@H](CC(C)C)N(Cc1ccccc1)S(=O)(=O)N(Cc1ccccc1)[C@H](C=C)CC(C)C | inactive: -5.66% | –
52 | Cc1ccccc1-c1ccc2ncnc(N3CCN(C)CC3)c2c1 | inactive: -17.3% | –
53 | COC(=O)c1c(OCc2ccccc2)cc(=O)n2c1CCN(Cc1cccc(C)n1)CC2 | inactive: -14.6% | –
54 | NCCNC(=O)c1ccc(Cl)cc1 | inactive: 4.63% | –
55 | CC1=C(C2=C(C)C(C(C)C)C3=C(C(=O)C(O)C3O)C2O)C(O)C2=C(C(O)C(O)C2=O)C1C(C)C (configuration not stated) | inactive: 3.08% | –
56 | O=C1CCN(Cc2ccccc2)CCN1CCO | inactive: -34.4% | –
57 | CC(C1OC(C)(C)C(O)C1O)C1CC[C@@]2(C)C3=CCC4C(C)(C)C(=O)CC[C@]4(C)C3CC[C@@]12C (some centres not stated) | inactive: -23.1% | –
58 | COc1ccc(CN2CCC3(CCC(CNC(=O)c4ccnn4C)O3)CC2)c(C)c1C (configuration not stated) | inactive: -9.06% | –
59 | OCC(O)C(O)[C@H](O[C@H]1OC(CO)C(O)C(O)C1O)[C@H](O)CO (some centres not stated) | inactive: -16.5% | –
60 | CC[N+](CC)(CC)c1ccc(/C=C/c2ccnc3ccccc23)cc1 | inactive: -23.2% | –
61 | COCCn1c(=O)cnc2cnc(Oc3cccc(Cl)c3)nc21 | inactive: -1.54% | –
62 | Cc1c(C(=O)N2CC[C@@H]3CCCC[C@H]3C2)sc2ncnc(NCCc3ccccn3)c12 | inactive: -9.11% | –
63 | CCCCN1C[C@H](C)[C@@H](CC(=O)NCc2ccccc2)C1=O | inactive: 7.82% | –

Row | SMILES | activation | Potency
64 | CC(=O)Nc1ccc(S(=O)(=O)Nc2cc(C)on2)cc1 | inactive: -12% | –
65 | CC(=O)NCCNc1cc(-c2ccccc2C)ncn1 | inactive: 2.33% | –
66 | CC(C)C[C@@H](CC#N)N1CCN(CCc2ccccc2)CCC1=O | inactive: -12.7% | –
67 | Cc1ccc(CNc2ncnc3sc(C(=O)N4CCC[C@H]4C(N)=O)c(C)c23)o1 | inactive: -12.6% | –
68 | O=C(O)CP(=O)(O)O | inactive: -6.52% and inactive: -24.6% | –
69 | CN(C)c1ncc2nc(-c3cc(F)cc(F)c3)c(=O)n(C[C@H]3CCCO3)c2n1 | inactive: -17.4% | –
70 | CC1(C)CC(=O)C([C@H]2C3=C(CC(C)(C)CC3=O)Oc3ccccc32)C(=O)C1 | inactive: -7.14% | –
71 | COCCNc1nc(-c2ccccc2C)nc2ccccc12 | inactive: -12.8% | –
72 | c1ncc(CC2CCNCC2)[nH]1 | inactive: -13.6% and inactive: 11.4% | –
73 | Cc1cnc(CNc2ncnc3ccc(-c4ccc5c(c4)OCO5)cc23)cn1 | inactive: 2.9% | –
74 | Cn1ccc2cc3c(cc21)CCN3C(=O)Nc1cccnc1 | inactive: -2.04% and inactive: 0.536% and inactive: 11.2% | –
75 | Cc1oc(-c2ccccc2NC(=O)c2cccnc2)nc1CNC(=O)c1ccc(N(C)C)cc1 | inactive: -5.8% | –
76 | CC(C)CCCC(C)C1CCC2C3=CC[C@@H]4CC(O)CC[C@@]4(C)C3CC[C@]21C (some centres not stated) | inactive: -32.8% | –
77 | Cc1occc1C(=O)Nc1cccc(-c2nc(CNC(=O)c3cccc(C#CC(C)(C)O)c3)c(C)o2)c1 | inactive: -15.2% | –
78 | C=CCc1cccc(C=NNC(=O)CN2CCN(Cc3ccccc3)CC2)c1O | inactive: -28.2% | –
79 | FC(F)OC(Cl)C(F)(F)F (configuration not stated) | – | active: 31.6 µM
80 | COCC(=O)N1CCC2(CC1)CCN(C(=O)NC(C)C)CC2 | inactive: -2.68% | –
81 | Cc1ncc2c(c1CNC(=O)c1cncs1)CCN(C(=O)c1ccc(C(F)(F)F)cc1)C2 | inactive: 0.21% | –
82 | N#CC(C#N)=C(N)/C(C#N)=C/c1cc(O)c(O)c(O)c1 | inactive: 11.8% | –
